Measurements from the supplement of paper PMC12645437, “Orthogonal IMiD-Degron Pairs Induce Selective Protein Degradation in Cells” (ACS Chemical Biology, 2025).
The list shows a part of the results.

Target: no compound (DMSO)
Assay: log2 fold change of degron read counts, EGFP-low vs EGFP+ sorted cells; higher = lower degron-EGFP level without compound (poor expression or instability)
Details: compound: DMSO control; 18 h
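Note: jurkat cells carrying a lentiviral library of mutant zinc finger degrons fused to EGFP plus mCherry, mCherry+ cells FACS sorted, degron abundance counted by next-generation sequencing.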

Sequence	log2 fold change of degron read counts
FKCPICGHAFTQKGNLLRHIKL	-0.538
FQCSVCGHHFTQKGNLLRHIKL	-0.49
FICPICGRAFTQKGNLLRHIKL	-0.205
FHCEICGARFTQKGNLLRHIKL	-1.51
FSCPVCGAYFTQKGNLLRHIKL	0.687
LHCNQCGFVCTQKGNLLRHIKL	0.234
FWCNQCGRWFTQKGNLLRHIKL	1.44
FTCDVCGAVFTQKGNLLRHIKL	-1.14
FICPVCGAPFTQKGNLLRHIKL	-0.0999
FGCEICGAHFTQKGNLLRHIKL	-0.853
FNCEICGRKFTQKGNLLRHIKL	-0.351
FRCNQCGAEFTQKGNLLRHIKL	-1.28
FSCPQCGALFTQKGNLLRHIKL	-0.646
FECDVCGAEFTQKGNLLRHIKL	-3.72
FYCEICGASFTQKGNLLRHIKL	-0.911
FWCPICGHWFTQKGNLLRHIKL	1.87
FMCNQCGHAFTQKGNLLRHIKL	-0.386
FKCNQCGHYFTQKGNLLRHIKL	-0.446
FTCEQCGAEFTQKGNLLRHIKL	-3.11
FACEICGRFFTQKGNLLRHIKL	-0.99
FLCPICGRTFTQKGNLLRHIKL	-0.815
FNCSVCGHPFTQKGNLLRHIKL	-0.65
LWCEICGFKCTQKGNLLRHIKL	1.1
FDCNICGATFTQKGNLLRHIKL	-1.96
FKCSVCGHMFTQKGNLLRHIKL	-0.517

Sequence	log2 fold change of degron read counts
FNCDICGAWFTQKGNLLRHIKL	-0.169
FVCDICGASFTQKGNLLRHIKL	-2.18
FECPICGRCFTQKGNLLRHIKL	-0.12
FECSVCGHEFTQKGNLLRHIKL	-1.36
FSCPVCGATFTQKGNLLRHIKL	-0.813
LMCPICGFKCTQKGNLLRHIKL	0.975
FDCEICGRTFTQKGNLLRHIKL	-1.94
LACNQCGFACTQKGNLLRHIKL	0.356
FSCDVCGAGFTQKGNLLRHIKL	-1.7
LLCPICGFTCTQKGNLLRHIKL	0.000522
FRCNVCGARFTQKGNLLRHIKL	-0.541
FNCDVCGAHFTQKGNLLRHIKL	-0.89
FICPVCGASFTQKGNLLRHIKL	-1
FECSVCGHFFTQKGNLLRHIKL	-0.719
LTCPICGFRCTQKGNLLRHIKL	0.656
FRCEICGRNFTQKGNLLRHIKL	-2.68
FWCDVCGANFTQKGNLLRHIKL	-0.501
FGCPICGASFTQKGNLLRHIKL	-0.0511
FRCNQCGHFFTQKGNLLRHIKL	0.583
FFCPICGRHFTQKGNLLRHIKL	-0.556
FYCEVCGADFTQKGNLLRHIKL	-1.67
FTCPICGHTFTQKGNLLRHIKL	-0.654
FSCNVCGAEFTQKGNLLRHIKL	-1.29
FSCNQCGREFTQKGNLLRHIKL	-0.844
FACPICGHSFTQKGNLLRHIKL	-0.726
